Where “and” joins values, the source holds several entries; their conditions need not be identical. Equal entries are not always repeated. About 620 (0.23%) of roughly 270,000 compounds were called active. Inconclusive results, whose numbers are uncertain, are shown with a selection of clear calls. Calls follow the shape of the dose curve; as a rule, active = well fitted inhibition curve with a large enough effect in the polarisation, with a control signal flat (not every such curve was filed as active); inconclusive = small, poorly fitted or top-dose-only effect, or effect the other way, or a change in a side signal; inactive = no such curve, though single readings can be large or run the other way; the % refers to the polarisation. Potencies of inconclusive entries are doubtful fits and often do not repeat. A note “side channel” means that the fit belongs to a control or component signal, not to the main read-out.
What follows are molecules tested against Menin (Homo sapiens) (UniProt O00255) (assay: qHTS Assay for Inhibitors Targeting the Menin-MLL Interaction in MLL Related Leukemias: Competition With Texas Red Labeled MLL-derived Mutant Peptide). Settings: fluorescence polarization; series mostly up to 61.6 µM.
Chain of UniProt O00255 (O00255 whole entry, looked up): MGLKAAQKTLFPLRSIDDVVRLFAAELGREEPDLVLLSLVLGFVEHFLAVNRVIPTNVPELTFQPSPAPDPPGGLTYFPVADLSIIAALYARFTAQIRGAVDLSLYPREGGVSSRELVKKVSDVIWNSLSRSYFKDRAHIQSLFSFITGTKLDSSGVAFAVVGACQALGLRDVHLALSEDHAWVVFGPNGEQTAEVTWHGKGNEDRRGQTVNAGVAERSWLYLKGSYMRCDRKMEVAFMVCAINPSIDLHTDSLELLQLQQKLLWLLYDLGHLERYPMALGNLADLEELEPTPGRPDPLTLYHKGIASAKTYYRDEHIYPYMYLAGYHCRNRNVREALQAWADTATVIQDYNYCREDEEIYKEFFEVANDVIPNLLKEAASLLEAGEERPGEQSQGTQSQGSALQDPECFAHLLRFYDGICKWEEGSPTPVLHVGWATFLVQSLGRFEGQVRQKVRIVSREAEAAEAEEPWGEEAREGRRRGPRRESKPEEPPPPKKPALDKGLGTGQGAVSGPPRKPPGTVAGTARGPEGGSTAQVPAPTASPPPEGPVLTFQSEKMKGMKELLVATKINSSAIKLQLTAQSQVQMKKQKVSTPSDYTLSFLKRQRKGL
COc1cccc(CNc2nc(C(F)(F)F)nc3ccccc23)c1 was tested, and the Potency was inconclusive: 14.1 µM [quencher, side channel, partial curve]. CCOC(=O)C1(Cc2ccccc2C)CCCN(C(=O)c2cc(C3CC3)[nH]n2)C1 (stereo not given) was tested, and the Potency was inconclusive: 5.01 µM [fluorescent, side channel, full curve]. For Cc1c(NC(=O)Cc2cccs2)cccc1[N+](=O)[O-], the Potency was inconclusive: 28.2 µM [quencher, side channel, partial curve]. With O=C(OC1CCOC1=O)c1cc(-c2cccs2)nc2ccccc12 (stereo not given) the Potency was inconclusive: 15.8 µM [quencher, side channel, partial curve]. With COc1ccc(CNc2cc(-c3ccoc3)ncn2)c(OC)c1 the Potency was “inactive”. Cc1ccc(-c2nn(-c3ccccc3)cc2C2CC(c3cccs3)=NN2C(=O)CCCC(=O)O)cc1 (stereo not given) was tested, and the Potency was “inactive”. COc1ccc(-n2nc3c(N4CCC(C(=O)N5CCCCCC5)CC4)nnc(C)c3c2C)cc1 was tested, and the Potency was inconclusive: 10 µM [fluorescent, side channel, partial curve]. In the case of O=C1C[C@@H](c2ccccc2Cl)N1S(=O)(=O)c1ccccc1[N+](=O)[O-], the Potency is reported as “inactive”. In the case of O=S(=O)(Cc1ccccc1)N1CCn2c(nc3ccccc32)C1, the Potency is reported as inconclusive: 35.5 µM [fluorescent, single point]. CCCCCN=c1ccn(Cc2ccccc2)c2ccccc12 was tested, and the Potency was inconclusive: 12.6 µM [fluorescent, side channel, partial curve]. COc1ccccc1-n1cnnc1SCC(=O)N1CCOCC1 was tested, and the Potency was inconclusive: 7.08 µM [quencher, side channel, single point]. COc1cc(CNC(C)C23CC4CC(CC(C4)C2)C3)cc(OC)c1OC (stereo not given) was tested, and the Potency was inconclusive: 4.47 µM [inhibitor, full curve, poor fit]. In the case of CC(C)OC(=O)c1cc2c(=O)[nH]c(C(Cl)(Cl)Cl)nc2o1, the Potency is reported as inconclusive: 25.1 µM [quencher, side channel, single point]. With O=C(N/N=C/c1ccc([N+](=O)[O-])o1)c1cc(-c2ccc(-c3ccccc3)cc2)nc2ccccc12 the Potency was inconclusive: 2.82 µM [quencher, side channel, full curve]. In the case of Cc1nn(CC(=O)Nc2ccc(Cl)cc2Cl)c(=O)c2ccccc12, the Potency is reported as inconclusive: 25.1 µM [fluorescent, side channel, single point]. In the case of CCn1c(C)nc2cc(C(=O)NNS(=O)(=O)c3ccccc3F)ccc21, the Potency is reported as inconclusive: 17.8 µM [inhibitor, partial curve]. In the case of CC1(C)Cc2cccc(OCC(=O)N3CCN(S(=O)(=O)c4ccccc4)CC3)c2O1, the Potency is reported as inconclusive: 10 µM [fluorescent, side channel, partial curve]. In the case of O=C(O)c1sccc1NC(=O)c1c(Cl)cccc1Cl, the Potency is reported as inconclusive: 31.6 µM [quencher, side channel, single point]. In the case of COC(=O)[C@@]1(Cc2ccc(OC)cc2)[C@H]2c3cc(C(=O)N(C)C)n(Cc4cccc5ccccc45)c3C[C@H]2CN1C(=O)c1ccccc1, the Potency is reported as inconclusive: 2.24 µM [fluorescent, side channel, partial curve]. In the case of Nc1cnc(Nc2ccc(Br)cc2)nc1N, the Potency is reported as inconclusive: 22.4 µM [quencher, side channel, partial curve]. With CCCCCCCCNC(C)C(O)c1ccc(SC(C)C)cc1 (stereo not given) the Potency was inconclusive: 3.55 µM [fluorescent, side channel, full curve]. COc1ccc(-c2csc3ncnc(N4CCN(c5ccccc5OC)CC4)c23)cc1 was tested, and the Potency was inconclusive: 15.8 µM [inhibitor, partial curve]. Cc1ccc(CNC(=O)CN(C2CCCCC2)S(C)(=O)=O)cc1 was tested, and the Potency was inconclusive: 22.4 µM [inhibitor, partial curve]. With Cc1c(NC(=S)NC(=O)c2ccc(COc3ccccc3)cc2)cccc1C(=O)O the Potency was inconclusive: 20 µM [quencher, side channel, single point]. Cc1cccc(C(=O)N(Cc2nc3ccccc3c(=O)[nH]2)C2CCCCC2)c1 was tested, and the Potency was inconclusive: 2.82 µM [fluorescent, side channel, full curve, poor fit]. With CC(C)C(O)(c1ccccc1)C(CN1CCOCC1)c1ccccc1 (stereo not given) the Potency was inconclusive: 12.6 µM [fluorescent, side channel, partial curve]. For Cc1ccc(NC(=S)NCCSc2ccc(Cl)cc2)cc1, the Potency was inconclusive: 11.2 µM [quencher, side channel, partial curve]. In the case of COc1ccc(CNCC(=O)Nc2cccc(S(N)(=O)=O)c2)cc1, the Potency is reported as “inactive”. Cc1cc(C)c(NC(=O)/C(=C/c2ccco2)c2ccccc2)c(C)c1 was tested, and the Potency was inconclusive: 22.4 µM [fluorescent, side channel, partial curve, poor fit]. In the case of COc1ccccc1N1CCN(C(=S)Nc2ccc(S(=O)(=O)N3CCOCC3)cc2)CC1, the Potency is reported as inconclusive: 17.8 µM [quencher, side channel, partial curve]. O=C(O)c1cc([N+](=O)[O-])ccc1NCCCc1ccccc1 was tested, and the Potency was inconclusive: 11.2 µM [quencher, side channel, partial curve] and inconclusive: 31.6 µM [quencher, side channel, single point] and inconclusive: 25.1 µM [quencher, side channel, partial curve]. In the case of COc1cc(/C=N/Nc2ccccc2)ccc1O, the Potency is reported as inconclusive: 14.1 µM [quencher, side channel, partial curve]. With O=C1CC(N2CCN(c3ccc(F)cc3)CC2)C(=O)N1Cc1cccs1 (stereo not given) the Potency was inconclusive: 11.2 µM [inhibitor, partial curve]. For O=C(c1ccc(Cl)cc1)N1CCN(CCOc2ccccc2)CC1, the Potency was inconclusive: 12.6 µM [fluorescent, side channel, partial curve, poor fit]. In the case of Cc1ncc(CO)c(/C=N/NC(=S)Nc2cccc(Cl)c2)c1O, the Potency is reported as inconclusive: 17.8 µM [quencher, side channel, partial curve].

— PubChem BioAssay AID1768 (National Center for Advancing Translational Sciences (NCATS), 2009)
Potency is read from the fitted curve at half-maximal effect; tags tell the direction and shape of the fitted curve or compound fluorescence and quenching.
